# Measured values taken from paper PMC12136788.
# Some of the results follow.
# T1: UNK ZnF1-3 (human, UniProt Q9C0B0 31-174)
# T1 sequence: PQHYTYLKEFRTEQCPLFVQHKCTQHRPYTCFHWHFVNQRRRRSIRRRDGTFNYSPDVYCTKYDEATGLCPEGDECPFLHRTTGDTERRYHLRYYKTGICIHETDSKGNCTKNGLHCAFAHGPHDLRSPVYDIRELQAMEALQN
# B1: chr1:180251914:180251915:+_ENSMUSG00000026500_ENSMUST00000027781|mus_hu|motif|central (ssRNA)
# RNA: GGGAGUUCUACAGUCCGACGAUCAGAUCCUAAUGAACCAUACAAUAUUGAAUGCCGGGCGCAGGGAGUAUUUUCAACAUCGGAAAAUCCUAGGAGCUUAAGGGACUUCCAAUAUGAUAAAUGUAACGACGUACAAGAUGCCUUCAACAGAGGAUUGAGCAUCA
# B2: chr10:24632488:24632489:+_ENSMUSG00000019984_ENSMUST00000092646|mus_hu|FALSE|FALSE (ssRNA)
# RNA: GGGAGUUCUACAGUCCGACGAUCUGCUGGAGACCCACUGUUCAUGGCUUGUGGAGGCACUGCAGCUGGCUCCAUCUUGCUAAUGUGUGUGAUGAAUCGAAGACGAAGUUUUAAAGCUGGUUUUAAGUUACAGAUAAUCUUCUCCAACAGAGGAUUGAGCAUCA
# B3: 37423422_37423793_878_CDS_ENSMUSG00000026113_ENSMUST00000027287|mouse|control|control (ssRNA)
# RNA: GGGAGUUCUACAGUCCGACGAUCAGGGGGCUGCUGGUCGGACUUCUCCUCCAUCUGCCAGCCGAUCACAGUUAUGUUGCCGACACGGUCACUCUCUGCAGACCUCAGUGUCAGAUGCAAUCUGUGAUGCCUGUCCUGGAGCAGCAACAGAGGAUUGAGCAUCA
# B4: chr14:78183846:78183847:+_ENSG00000119705_ENST00000557342|hu_hu|hu_hu_hu_mus_False|78_108 (ssRNA)
# RNA: GGGAGUUCUACAGUCCGACGAUCUCUGUCUCAAAAAUCUUCAUCAGAUGUUUGAGCUGUUUGCGGAGCCUUUGCUCUUUGAGCUUGAACGUGGAUCUAUGGGAGGGAAAGCACUGUCAGAAAAGGUAAUUUUUUUUUUAAAGACAACAGAGGAUUGAGCAUCA
# B5: chr19:10652113:10652114:+_ENSMUSG00000034445_ENSMUST00000168445|mus_mus|FALSE|FALSE (ssRNA)
# RNA: GGGAGUUCUACAGUCCGACGAUCAAGGAAGCGGCGGAACCACCACUGGAACCCAUAACCCGGCUCUCCCAGCCCGGGUUCUAUCCCACCCUUAGCCACACAGUGGGACACCUUGGGGGCAGGUCUCUGGGACCCGCCGGUCAGCAACAGAGGAUUGAGCAUCA
# B6: 118439522_118441709_1028_CDS_ENSG00000196505_ENST00000369442|human|control|control (ssRNA)
# RNA: GGGAGUUCUACAGUCCGACGAUCGUCAAUAUCUCCUUCCAUUCGAGCAAAAGCAUGAGAGCCAAUGAAAGAGAGAUCAACUCCCAAGCCUUCAUCCUCCUCUUCUUGGUUAUCUUCUGGAGCACCAGGUUUCUCACUUAUUCUCAACAGAGGAUUGAGCAUCA
# B7: chr2:47387770:47387771:-_ENSG00000143933_ENST00000272298|hu_mus|hu_hu_hu_mus_True|18_18 (ssRNA)
# RNA: GGGAGUUCUACAGUCCGACGAUCAAGGUUUAAGGACAAUGACAGUAAGAUAAGGGAAGAAAACAUGGAGGAAUGAAGUCCUAAUUACUAUACAUGCAUAUUUUUUGACAGUAGGGGAGAAACCUUUUUUACAGAUAAGUUACACAACAGAGGAUUGAGCAUCA
# B8: chr17:65740002:65740003:+_ENSG00000130935_ENST00000581375|hu_hu|hu_hu_hu_mus_False|1_58 (ssRNA)
# RNA: GGGAGUUCUACAGUCCGACGAUCAACAAAUCUUUCUUCCCUGGACGAACAGGAAGAUUCAUAUUAAAAAAAAUAUAUGUCUAUGAAGUUAGGUGUGGUGGCCACACCUUUACUCCCAGCACUUUGGGAGGUGGAUCCUCUAUUCAACAGAGGAUUGAGCAUCA
# B9: 65282079_65282199_135_5pUTR_ENSG00000090487_ENST00000204566|human|control|control (ssRNA)
# RNA: GGGAGUUCUACAGUCCGACGAUCGGCGGCUGGGCCCGGGUCGGGGCGGGCGGCGGAGCACUCGGGACCCACGGGCACAGCAGGCUGCGCGGUGCGUGCGGGAGGCCGGCCUCUGAGGGGGCGGGGCGCGUGGCCGAGCGAGCUCAACAGAGGAUUGAGCAUCA
# B10: chr3:95999270:95999271:+_ENSMUSG00000038486_ENSMUST00000035371|mus_mus|FALSE|FALSE (ssRNA)
# RNA: GGGAGUUCUACAGUCCGACGAUCAUCCCCUGGGGAUGCAGUAAGGGAGAAGGCUACGUCCAGCCACGGAAUGGUGAAAGAAGGGUCGCACAUUCACACACUGGGCACUGGAGGAGAAGGCAGUCCUUUGAGCACAGACACUAGCAACAGAGGAUUGAGCAUCA
# B11: 33558616_33576794_3194_CDS_ENSG00000163539_ENST00000461133|human|control|control (ssRNA)
# RNA: GGGAGUUCUACAGUCCGACGAUCCAGCUCCUUCAACAACUCUGCAACUAGGUCAGAAUGAUCUAGGGAAAGAUCGUCAGGAAACUGGUCAGCAUCAUCAUCAAACAUGGCUUCCUUGAGGGCAGACUUGUUGAAGGGACUGAUCAACAGAGGAUUGAGCAUCA
# B12: chr2:101883234:101883235:+_ENSG00000158435_ENST00000289382|hu_hu|FALSE|FALSE (ssRNA)
# RNA: GGGAGUUCUACAGUCCGACGAUCGAAAUACUCAGUGAUCUGGCUUGACUGCAUUAAUUUCAGCAACAUUUCUAUAGCGACUAAAGGGUUGUUUUCCACAAGGUCAGGAAGUUUGGCUGGGGUGAGGCCAAUAUGGUAGACAAGCAACAGAGGAUUGAGCAUCA
# B13: chr16:46708560:46708561:-_ENSG00000069329_ENST00000568784|perfect_dup|FALSE|FALSE (ssRNA)
# RNA: GGGAGUUCUACAGUCCGACGAUCAAAAAGUUUAAUCUCAGCUGGAAUUCCGGGUCCAUCUUCACGAUGAGCAAAUAAAGCUAAUCUGUCAAUUAAAGCAAUGAUUAUGUUUUUCACAUUUACAUUUUGGUGUAAUUCAGCACACAACAGAGGAUUGAGCAUCA
# B14: chrX:71549400:71549401:+_ENSMUSG00000019087_ENSMUST00000019231|mus_hu|mus_mus_mus_hu_False|78_98 (ssRNA)
# RNA: GGGAGUUCUACAGUCCGACGAUCGCAGUAGGAAGAGCAAACCUUUCCAGUCCAGUGGUCACAAAACUGGGAAAGCAACAACACGGACACCGUCCCACCCUCAACCCCCCCACUGGCACAGGGUCACACAAUCUGGGUCAAAGACAACAGAGGAUUGAGCAUCA
# Molecular target: T1, UNK ZnF1-3
# Assay: nsRBNS (natural sequence RNA bind-n-seq); RBNS binding buffer (assumed for nsRBNS): 25 mM Tris pH 7.5, 150 mM KCl, 3 mM MgCl2, 0.01% Triton X-100, 500 ug/ml BSA, 20 U/ml SUPERase-In, 4 C; UNK is unkempt and MSI1 is Musashi-1; names of the RNAs are library labels; protein concentration not given here; high values mean tight binding
row,Binder,binding signal [enrichment R]
1,B1,1.55
2,B2,0.925
3,B3,0.238
4,B4,2.92
5,B5,0.72
6,B6,1.12
7,B7,1.81
8,B8,1.17
9,B9,0.738
10,B10,1.02
11,B11,0.445
12,B12,1.53
13,B13,1.15
14,B14,1.59
